40 compounds from publication PMC12040169 (PLOS Biology, 2025) can be followed below.

Molecules are shown by their SMILES. Some of the results follow.

The experiment relates to T1, C. trachomatis L2/434/Bu expressing GFP (CTL2-GFP).
T1 construct: L2/434/Bu GFP intracellular growth in HeLa cells
Further details: species or system HeLa; C. trachomatis total inclusion area by high-content imaging, normalised to DMSO. The conditions noted are these: total inclusion area; 28.5 h, 10 µM; inhibitor. The essentials: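 Host cell viability was gauged from Hoechst-stained nuclei counts, while chlamydial growth was taken from total inclusion area and inclusion number per well. Cells were fixed and imaged by high-content microscopy once bulk GFP and resorufin fluorescence had been measured.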
For `CCCc1[nH]nc(O)c1Cc1ccc(C(C)C)cc1` [CBK075033], the “% of control remaining” value is reported as 75.6994.
The same measure for `CCC(NC(=O)CCc1cc2n(n1)CCNC2)c1cn2cccnc2n1` (stereo not shown) [CBK307090]: 37.6305; for `Cc1cc(C(=O)Nc2nc(Cc3n[nH]c(=S)n3C)cs2)sc1C` [CBK296687]: 100.133.
The same measure for `O=C(Nc1ccc(C(F)(F)F)cc1)c1cc(Br)cnc1NCc1cccnc1` [CBK076419]: 74.8156; for `COc1ccc([C@@]23CC[C@@H](NC(=O)N(C)c4ccc(Cl)cc4)C[C@@H]2N(C)CC3)cc1OC` [CBK045682T]: 80.3857.
`CN(C)c1cccc(C(=O)Nc2ccccc2N2CCOCC2)c1` [CBK295184]: the “% of control remaining” value was determined as 79.7012.
The same measure for `COc1ccc(CCOc2cnc(-c3ccccc3)c(N)n2)cc1` [CBK145065]: 65.7526; for `O=C(NC1CCN(c2ncccn2)CC1)c1cccnc1O` [CBK297739]: 37.0753; for `N#Cc1ccc(C(=O)N2Cc3nc[nH]c3C[C@H]2c2nc(-c3ccncc3)no2)cc1` [CBK288963]: 107.106.
Then `O=C(Nc1ccc2ncccc2c1)c1ccc(OC(F)(F)F)cc1` [CBK159815], with 87.8444.
The same measure for `CC1CCN(Cc2c(C3CCNCC3)[nH]c3ncccc23)CC1` [CBK285022]: 85.9347; for `O=C(Nc1ccncc1)c1ccc(N2C(=O)c3ccccc3C2=O)cc1` [CBK287803]: 77.0239.
For `O=C(O)CC1C(=O)NCCN1Cc1ccc(-c2ccccc2)cc1` (stereo not shown) [CBK269812], the “% of control remaining” value was found to be 99.5033.
With `O=C1CC2(CCC3C(C(=O)NC4CCCC4)C32)Oc2ccccc21` (stereo not shown) [CBK284922], the “% of control remaining” value is given as 118.391.
The same measure for `O=[N+]([O-])c1cc2c(cc1CN1CCN(Cc3ccccc3)CC1)OCO2` [CBK261548]: 112.826; for `CC(NC(=O)c1cc(-c2ccccc2)nc2ccccc12)c1cccc(S(N)(=O)=O)c1` (stereo not shown) [CBK298285]: 93.7068; for `O=C(NC1CCCOC1)c1cc(-c2cccs2)no1` (stereo not shown) [CBK282565]: 117.964.
The same measure for `COc1cc(OC)cc(C(=O)Nc2nnc(C(F)(F)F)s2)c1` [CBK099828]: 84.8557; for `O=C(CCn1c(C(F)F)cc2cccnc21)NC1CCCCC1` [CBK285064]: 95.1742; for `CC(C)(C)S(=O)(=O)Nc1nccnc1-c1cccs1` [CBK050765]: 80.5457.
Then `CCc1nn2c(=O)cc(CNc3ccc4c(c3)OCCO4)nc2s1` [CBK297787], with 77.7692.
Turning to `O=c1oc2cc(S(=O)(=O)NCc3ccco3)ccc2c2ccc(S(=O)(=O)NCc3ccco3)cc12` [CBK267177], the “% of control remaining” value amounted to 116.345.
Then `S=C(Nc1ccccc1)Nc1nc2ccccc2n1CCOc1ccccc1` [CBK265487], with 76.7256; and `CCOC(=O)c1c(-c2ccc(OC)cc2)noc1C(=O)c1ccccc1` [CBK002295], with 85.4433.
Then `Nc1ncc(-c2ccco2)nc1-c1ccc(C(=O)NCCO)cc1` [CBK064124], with 103.088.
Then `C1=CCC(CN2CCN(C3CCN(Cc4ccccc4)CC3)CC2)CC1` (stereo not shown) [CBK263469], with 80.9018.
As for `Cc1cccc(-c2nnc(-c3ccc(NC(=O)CSCc4ccccc4)cc3)o2)c1` [CBK266775], the “% of control remaining” value was 111.896.
On to `CC1Cc2cc(C(O)CN3CCCC3)ccc2N1C(=O)C1CC1` (stereo not shown) [CBK286440], for which the “% of control remaining” value is reported as 121.234.
The same measure for `Cc1cccnc1NC(=O)c1ccc(NC(C)C)c([N+](=O)[O-])c1` [CBK269494]: 98.3405; for `Cc1ccc(S(=O)(=O)c2cccc(S(=O)(=O)N3CCCCC3)c2)cc1S(=O)(=O)N1CCCCC1` [CBK262207]: 87.6931.
The same measure for `CS(=O)(=O)N1CCC2(CC1)Cn1c(cc3ccccc31)C(=O)O2` [CBK282820]: 100.424; for `CCOc1ccc(-c2cncc(Nc3cccc(C(F)(F)F)c3)n2)cc1` [CBK065798]: 20.2641.
Then `O=C(CSCc1nc2ccccc2[nH]1)Nc1cccc(C(F)(F)F)c1` [CBK268474], with 86.5447; and `COc1ccc(OC)c(NC(=O)CNC(=O)c2ccc(C)cc2)c1` [CBK268881], with 77.3789.
`CN(C)c1nc(-c2ccc3c(c2)CCCN3S(C)(=O)=O)cs1` [CBK305016]: the “% of control remaining” value is given as 61.9045.
Then `COc1ccc(C(=O)CCN(C)CC(=O)O)cc1` [CBK287227], with 107.778.
The same measure for `CCC(CO)Nc1nc(-c2ccc(O)cc2)cn2ccnc12` (stereo not shown) [CBK037471]: 88.5371.
With `CCc1cc(OCCCSc2nc(C)cc(O)n2)ccc1Cl` [CBK267364], the “% of control remaining” value was found to be 116.478.
The same measure for `Cc1nc(C(F)(F)F)ccc1C(=O)N(C)CCN1CCCCC1` [CBK281917]: 109.853; for `CCc1n[nH]c(C(=O)N2CCc3ncc(Cl)cc3C2)c1C` [CBK284856]: 113.851.
